From PMC8719716
Substitutions are numbered along the chain they refer to. No constants are given. Whether binding was seen depends on the method and setting. In cells and extracts the contact can be indirect. Some binding calls cover weakened binding; strength is not graded here. For some assays here: Where a sequence is shown, tags or fusion partners need not be part of it.

Amino acid sequences for entries named in this document (tags omitted).
UniProt P70032: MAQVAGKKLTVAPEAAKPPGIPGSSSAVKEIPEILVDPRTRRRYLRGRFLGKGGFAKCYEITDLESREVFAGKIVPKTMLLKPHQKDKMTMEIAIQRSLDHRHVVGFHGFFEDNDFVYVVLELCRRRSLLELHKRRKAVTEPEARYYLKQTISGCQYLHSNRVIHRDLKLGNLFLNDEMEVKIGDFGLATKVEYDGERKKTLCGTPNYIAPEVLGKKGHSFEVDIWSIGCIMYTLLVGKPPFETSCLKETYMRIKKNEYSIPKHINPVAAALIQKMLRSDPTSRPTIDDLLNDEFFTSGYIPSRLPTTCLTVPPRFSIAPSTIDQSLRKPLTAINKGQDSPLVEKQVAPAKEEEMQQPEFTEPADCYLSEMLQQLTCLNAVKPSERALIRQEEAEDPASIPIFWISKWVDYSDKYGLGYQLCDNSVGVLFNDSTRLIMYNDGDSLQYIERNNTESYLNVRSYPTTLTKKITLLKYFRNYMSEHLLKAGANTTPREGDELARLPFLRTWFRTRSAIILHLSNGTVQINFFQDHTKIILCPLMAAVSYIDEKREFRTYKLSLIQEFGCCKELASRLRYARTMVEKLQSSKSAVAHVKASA

Experiments:
Test in all cases: co-IP; Xenopus embryos injected with mRNAs at the one-cell stage, harvested at stages 11–12, lysed in TNSG buffer (50 mM Tris-HCl pH 7.4, 150 mM NaCl, 1% NP-40, 10% glycerol) with protease and phosphatase inhibitors; anti-V5, anti-Flag M2 or anti-HA agarose, 6–8 h at 4°C; reciprocal
[1] = molecular target: T1, X. laevis CEP97 Δ516–540 (X. laevis) (UniProt Q6GPJ8)
T1 sequence: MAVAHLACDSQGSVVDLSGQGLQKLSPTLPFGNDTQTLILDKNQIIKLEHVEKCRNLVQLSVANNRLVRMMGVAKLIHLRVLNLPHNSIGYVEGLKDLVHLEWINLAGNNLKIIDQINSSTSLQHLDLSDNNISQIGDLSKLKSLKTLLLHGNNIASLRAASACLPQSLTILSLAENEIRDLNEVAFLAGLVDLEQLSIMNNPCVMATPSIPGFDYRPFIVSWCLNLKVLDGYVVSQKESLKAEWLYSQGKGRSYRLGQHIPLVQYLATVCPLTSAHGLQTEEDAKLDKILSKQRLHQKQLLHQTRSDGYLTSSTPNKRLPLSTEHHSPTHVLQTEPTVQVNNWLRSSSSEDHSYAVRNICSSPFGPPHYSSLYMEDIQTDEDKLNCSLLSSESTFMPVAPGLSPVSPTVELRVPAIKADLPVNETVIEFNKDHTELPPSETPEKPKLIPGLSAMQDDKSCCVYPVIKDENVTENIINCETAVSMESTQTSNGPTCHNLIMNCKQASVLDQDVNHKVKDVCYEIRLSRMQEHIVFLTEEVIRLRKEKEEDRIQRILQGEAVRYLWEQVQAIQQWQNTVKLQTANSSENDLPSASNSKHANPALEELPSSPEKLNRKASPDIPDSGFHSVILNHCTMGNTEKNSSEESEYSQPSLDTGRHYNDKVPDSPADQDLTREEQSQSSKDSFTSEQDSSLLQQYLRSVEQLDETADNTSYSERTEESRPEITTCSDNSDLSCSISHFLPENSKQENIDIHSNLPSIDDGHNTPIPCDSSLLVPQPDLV

[2] = molecular target: T2, X. laevis CEP97 WT, exogenous, tag not named for the experiment (X. laevis) (UniProt Q6GPJ8)
T2 sequence: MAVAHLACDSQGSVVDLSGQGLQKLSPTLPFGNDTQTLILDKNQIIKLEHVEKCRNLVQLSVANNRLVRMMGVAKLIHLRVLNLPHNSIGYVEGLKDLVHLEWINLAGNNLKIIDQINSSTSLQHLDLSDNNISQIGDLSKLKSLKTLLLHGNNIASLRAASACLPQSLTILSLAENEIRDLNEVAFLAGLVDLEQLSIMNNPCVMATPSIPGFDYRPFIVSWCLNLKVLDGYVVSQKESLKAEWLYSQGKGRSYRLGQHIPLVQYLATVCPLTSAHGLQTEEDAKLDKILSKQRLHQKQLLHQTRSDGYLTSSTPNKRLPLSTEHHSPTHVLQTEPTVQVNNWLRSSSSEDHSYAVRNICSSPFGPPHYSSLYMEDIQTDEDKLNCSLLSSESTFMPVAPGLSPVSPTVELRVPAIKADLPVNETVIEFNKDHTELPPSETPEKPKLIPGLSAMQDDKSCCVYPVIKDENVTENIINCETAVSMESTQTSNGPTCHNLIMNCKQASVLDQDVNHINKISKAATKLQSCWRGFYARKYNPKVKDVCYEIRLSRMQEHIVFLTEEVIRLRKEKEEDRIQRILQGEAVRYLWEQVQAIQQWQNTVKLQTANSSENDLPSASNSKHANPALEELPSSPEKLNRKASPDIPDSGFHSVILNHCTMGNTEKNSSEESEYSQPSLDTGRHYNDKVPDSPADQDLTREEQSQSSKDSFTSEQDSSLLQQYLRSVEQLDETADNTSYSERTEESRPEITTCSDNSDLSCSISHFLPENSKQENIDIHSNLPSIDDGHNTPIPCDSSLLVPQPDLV

[3] = molecular target: T3, X. laevis CEP97 Δ541–565 (X. laevis) (UniProt Q6GPJ8)
T3 sequence: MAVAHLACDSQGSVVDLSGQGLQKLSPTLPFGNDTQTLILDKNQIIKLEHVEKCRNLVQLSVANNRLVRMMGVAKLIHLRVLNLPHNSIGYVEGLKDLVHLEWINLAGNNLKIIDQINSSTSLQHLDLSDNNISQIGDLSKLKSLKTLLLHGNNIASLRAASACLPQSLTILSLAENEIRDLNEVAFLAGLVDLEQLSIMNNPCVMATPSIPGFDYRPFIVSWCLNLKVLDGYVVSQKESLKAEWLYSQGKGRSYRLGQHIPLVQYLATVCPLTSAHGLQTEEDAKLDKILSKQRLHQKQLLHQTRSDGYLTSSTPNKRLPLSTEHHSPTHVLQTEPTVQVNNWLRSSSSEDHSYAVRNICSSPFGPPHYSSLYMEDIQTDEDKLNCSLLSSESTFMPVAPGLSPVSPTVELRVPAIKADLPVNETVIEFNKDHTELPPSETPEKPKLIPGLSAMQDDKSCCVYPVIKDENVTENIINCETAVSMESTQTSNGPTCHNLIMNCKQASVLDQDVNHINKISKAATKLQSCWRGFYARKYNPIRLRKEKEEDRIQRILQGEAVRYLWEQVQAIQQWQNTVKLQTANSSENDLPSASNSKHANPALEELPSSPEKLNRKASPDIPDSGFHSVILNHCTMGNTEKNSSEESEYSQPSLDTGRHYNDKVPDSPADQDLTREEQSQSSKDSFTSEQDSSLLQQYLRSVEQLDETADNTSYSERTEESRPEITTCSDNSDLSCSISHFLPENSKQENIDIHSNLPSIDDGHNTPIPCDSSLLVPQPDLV

[4] = molecular target: T4, X. laevis CEP97 phosphomimetic mutant (SD; S634D, S643D, S649D, and S653D) (X. laevis) (UniProt Q6GPJ8)
T4 sequence: T2 sequence with S634D, S643D, S649D, S653D

In the case of “X. laevis Dyrk1a WT, exogenous, tag not named for the experiment (from UniProt Q2TAE3 1-750) (enzyme)”, the binding [1] is reported as “binds” and the binding [2] is reported as “binds”.
For “X. laevis Plk1 WT, exogenous, tag not named for the experiment (from UniProt P70032 1-598) (enzyme)”, the binding [3] was “no binding”, the binding [4] was “binds” and the binding [2] was “binds”.
